The supplement of paper PMC9151546
Many values rest on one well or one pass, so single values are uncertain.

Assays:
[1] = system: CHO-K1; assay: micronucleus frequency (% of nucleated events); higher = more micronuclei (genotoxic)
[2] = system: CHO-K1; assay: hypodiploid nuclei frequency (% of nucleated events); higher = more hypodiploid events (aneugenic)
Experimental: (§1)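 Flow-cytometric in vitro micronucleus assay (Litron MicroFlow) in CHO-K1 cells in 96-well plates, 19 concentrations (4.5-200 µM, n=1 per concentration). Without S9, cells were exposed for 24 h and sampled at 48 h. With Aroclor 1254-induced rat liver S9, cells were exposed for 3-4 h and sampled at 27-28 h. Read-outs are %MN and %hypodiploid nuclei relative to nucleated events, and relative survival as the nuclei-to-bead ratio versus the 1% DMSO vehicle control (x100).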

[3] = system: CHO-K1; assay: relative survival (nuclei to bead ratio vs DMSO control) (% of vehicle control); higher = more surviving cells
Experimental: as §1
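Throughout, for hypodiploid nuclei frequency (% of nucleated events): hypodiploid nuclei gated on a flow cytometer with 488 nm excitation after SYTOX Green staining, cultures at 37 °C, positive controls vinblastine without S9 and cyclophosphamide with S9.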
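Throughout, for micronucleus frequency (% of nucleated events): cells lysed with nuclei stained by SYTOX Green, then micronucleus-gated events counted against nucleated events by flow cytometry with 488 nm excitation.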
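Throughout, for relative survival (nuclei to bead ratio vs DMSO control): Lysed-cell nuclei stained with SYTOX Green and counted against counting beads by flow cytometry at 488 nm excitation, with vinblastine (no S9) and cyclophosphamide (plus S9) as positive controls.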

O=CCCCC=O [Glutaraldehyde]
Settings | hypodiploid nuclei frequency, [2] [%] | micronucleus frequency, [1] [%] | relative survival, [3]
concentration: 4.55 (µM), S9 metabolic activation: with S9, exposure time: 3-4 hours | 0.22 | 2.38 | 118
concentration: 4.55 (µM), S9 metabolic activation: without S9, exposure time: 24 hours | 0.68 | 2.5 | 73.3
concentration: 5.69 (µM), S9 metabolic activation: with S9, exposure time: 3-4 hours | 0.48 | 1.82 | 95.9
concentration: 5.69 (µM), S9 metabolic activation: without S9, exposure time: 24 hours | 0.72 | 1.94 | 70.9
concentration: 7.11 (µM), S9 metabolic activation: with S9, exposure time: 3-4 hours | 0.56 | 2.36 | 97.9
concentration: 7.11 (µM), S9 metabolic activation: without S9, exposure time: 24 hours | 0.72 | 2.56 | 71.7
concentration: 8.88 (µM), S9 metabolic activation: with S9, exposure time: 3-4 hours | 0.26 | 1.54 | 129
concentration: 8.88 (µM), S9 metabolic activation: without S9, exposure time: 24 hours | 0.74 | 2.36 | 83.1
concentration: 11.1 (µM), S9 metabolic activation: with S9, exposure time: 3-4 hours | 0.28 | 1.54 | 81.6
concentration: 11.1 (µM), S9 metabolic activation: without S9, exposure time: 24 hours | 0.36 | 1.96 | 90.5
concentration: 13.9 (µM), S9 metabolic activation: with S9, exposure time: 3-4 hours | 0.37 | 2.36 | 91.4
concentration: 13.9 (µM), S9 metabolic activation: without S9, exposure time: 24 hours | 0.62 | 1.26 | 83.8
concentration: 17.4 (µM), S9 metabolic activation: with S9, exposure time: 3-4 hours | 0.2 | 1.7 | 84.9
concentration: 17.4 (µM), S9 metabolic activation: without S9, exposure time: 24 hours | 0.64 | 1.86 | 71.7
concentration: 21.7 (µM), S9 metabolic activation: with S9, exposure time: 3-4 hours | 0.27 | 1.13 | 74.2
concentration: 21.7 (µM), S9 metabolic activation: without S9, exposure time: 24 hours | 0.48 | 2.26 | 74.5
concentration: 27.1 (µM), S9 metabolic activation: with S9, exposure time: 3-4 hours | 0.18 | 1.48 | 127
concentration: 27.1 (µM), S9 metabolic activation: without S9, exposure time: 24 hours | 0.76 | 2.24 | 94.4
concentration: 33.9 (µM), S9 metabolic activation: with S9, exposure time: 3-4 hours | 0.24 | 1.44 | 145
concentration: 33.9 (µM), S9 metabolic activation: without S9, exposure time: 24 hours | 0.68 | 3.58 | 88
concentration: 42.4 (µM), S9 metabolic activation: with S9, exposure time: 3-4 hours | 0.34 | 2.04 | 129
concentration: 42.4 (µM), S9 metabolic activation: without S9, exposure time: 24 hours | 0.72 | 2.86 | 69.4
concentration: 53 (µM), S9 metabolic activation: with S9, exposure time: 3-4 hours | 0.34 | 1.64 | 130
concentration: 53 (µM), S9 metabolic activation: without S9, exposure time: 24 hours | 0.94 | 2.86 | 61.1
concentration: 66.2 (µM), S9 metabolic activation: with S9, exposure time: 3-4 hours | 0.06 | 1.72 | 115
concentration: 66.2 (µM), S9 metabolic activation: without S9, exposure time: 24 hours | 0.76 | 3.84 | 56.6
concentration: 82.7 (µM), S9 metabolic activation: with S9, exposure time: 3-4 hours | 0.22 | 1.68 | 110
concentration: 82.7 (µM), S9 metabolic activation: without S9, exposure time: 24 hours | 0.66 | 3.4 | 68.4
concentration: 103 (µM), S9 metabolic activation: with S9, exposure time: 3-4 hours | 0.36 | 1.14 | 80.5
concentration: 103 (µM), S9 metabolic activation: without S9, exposure time: 24 hours | 0.69 | 3.72 | 54.4
concentration: 129 (µM), S9 metabolic activation: with S9, exposure time: 3-4 hours | 0.62 | 1.96 | 79
concentration: 129 (µM), S9 metabolic activation: without S9, exposure time: 24 hours | 0.88 | 3.48 | 47.1
concentration: 162 (µM), S9 metabolic activation: with S9, exposure time: 3-4 hours | 1.3 | 3.04 | 59.2
concentration: 162 (µM), S9 metabolic activation: without S9, exposure time: 24 hours | – | – | 31.9
concentration: 202 (µM), S9 metabolic activation: with S9, exposure time: 3-4 hours | 1.63 | 3.47 | 45.5
concentration: 202 (µM), S9 metabolic activation: without S9, exposure time: 24 hours | – | – | 31.7
